Results: PubChem BioAssay AID1345082 (National Center for Advancing Translational Sciences (NCATS), 2018)
“And” between values parts separate entries of the source, which are not always exact repeats. Identical values can stand only once. Screen size: about 94,000 compounds; about 4,000 (4.3%) were called active. This list was built around the results that the source calls inconclusive (neither active nor inactive); the mix of calls is not that of the screen. The call rests on the fitted dose curve; in most records, active means well fitted inhibition curve with a large enough effect; inconclusive means small, poorly fitted or top-dose-only effect; inactive means no such curve, though single readings can be large or run the other way. Potencies beside an inconclusive call are fits to weak or partial responses and may not hold up.

assay: Cytotoxic Profiling in NIH 3T3 Cell Line of Diverse Libraries Using Quantitative High-Throughput Screening; conditions: NIH 3T3 viability, CellTiter-Glo ATP luminescence, 48-72 h; series mostly up to 96.7 µM; further: nearly all actives have a fitted effect of over 55% in size
Procedure, shortened: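 Cells were seeded at 400 per well, treated with pin-transferred compound, and kept 48 or 72 hr at 37 °C before CellTiter-Glo addition and luminescence imaging of cellular ATP.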
Potency means the concentration at half of the fitted maximal effect; tags describe the fitted curve by direction and shape.

Row | Compound | Potency
1 | COc1ccccc1CN1CCCC(CN(CCN(C)C)C(=O)c2cc(C(C)C)no2)C1 (stereo not given) | inconclusive: 63.1 µM [inhibitor, partial curve, poor fit]
2 | Cn1nc(C2CCCC2)cc1NC(=O)c1ccccc1Cl | inconclusive: 79.4 µM [inhibitor, partial curve]
3 | CCN1CCN(C(=O)c2cc(-c3cc(Cl)cc(Cl)c3)c3nncn3n2)CC1 | inconclusive: 28.2 µM [inhibitor, partial curve, poor fit]
4 | CCc1nc2c(c(-c3ccc(Cl)cc3)n1)CCN(Cc1ccc(N(C)C)cc1)CC2 | inconclusive: 70.8 µM [inhibitor, partial curve, poor fit]
5 | CCCS(=O)(=O)N[C@H]1C[C@@H](c2nc(-c3ccc4c(c3)OCO4)no2)N(C)C1 | inactive
6 | COc1ccc(-c2cc(C(=O)NC3CC3)c3cnn(C)c3n2)cc1 | inconclusive: 44.7 µM [inhibitor, full curve]
7 | O=C(NCCc1ccc(Cl)cc1)C1CCN(Cc2ccccc2-c2cccnc2)CC1 | inconclusive: 44.7 µM [inhibitor, partial curve, poor fit]
8 | CS(=O)(=O)NC1CCN(c2ccc3nnc(C4CC4)n3n2)CC1 | inactive
9 | Cn1cccc1CN1CCCN(S(C)(=O)=O)C(c2ccccc2)CC(=O)NCC1 (stereo not given) | inactive
10 | C=Cc1cccc(CN2CCCC3(CCNC3)C2)c1 (stereo not given) | inconclusive: 89.1 µM [inhibitor, single point]
11 | COc1ccc(-c2cc(N3CCCC(NC(=O)c4cc(C)cc(C)c4)C3)n[nH]2)cc1 (stereo not given) | active: 39.8 µM
12 | Cc1noc(CC2CCOC3(CCN(C(=O)c4cc(-c5ccc(F)cc5)n[nH]4)CC3)C2)n1 (stereo not given) | inactive
13 | CCCCCC(=O)N1CCC(=O)N(CCOC)C[C@H]2COc3ccccc3[C@H]21 | inconclusive: 79.4 µM [inhibitor, partial curve, poor fit]
14 | COCCn1ncc(N2CCCC(CC(=O)N3CC=C(c4ccccc4)CC3)C2)cc1=O (stereo not given) | inconclusive: 10 µM [inhibitor, full curve, poor fit]
15 | O=C(NCc1ccc(F)cc1)c1cn2cc(-c3ccc(F)cc3)sc2n1 | inconclusive: 50.1 µM [inhibitor, partial curve, poor fit]
16 | COc1ccc(CN2C[C@H]3CN(Cc4ccc(C)cc4)CCN3C2=O)cc1 | inconclusive: 89.1 µM [inhibitor, partial curve]
17 | O=C1COc2ccc(Nc3ccccc3F)nc2CN1Cc1ccccc1F | inconclusive: 56.2 µM [inhibitor, partial curve, poor fit]
18 | COc1cc(OC)cc(C(=O)N2CCC(n3cc(-c4nc(C(C)C)no4)nn3)CC2)c1 | inconclusive: 79.4 µM [inhibitor, partial curve, poor fit]
19 | CC(=O)NC1CCN(c2ccc3nnc(C4CC4)n3n2)C1 (stereo not given) | inconclusive: 56.2 µM [inhibitor, partial curve, poor fit]
20 | O=C(NCCc1ccccc1)C1CCN(C(=O)[C@H]2CCC[C@@H](O)C2)CC1 | inactive
21 | O=C(Nc1ccc2c(c1)OCCO2)N1CCCC(Cn2cnc3cccnc32)C1 (stereo not given) | inactive
22 | CC1(COc2ccccc2)COc2ccc(C(=O)NCc3ccc4c(c3)OCO4)cc2N1 (stereo not given) | inconclusive: 28.2 µM [inhibitor, full curve]

Row | Compound | Potency
23 | O=C1NCCCCCN(C(=O)c2ccsc2)[C@H]2CCC[C@@H]12 | inactive
24 | O=C(Nc1cc(-c2ccncc2)nn1-c1ccccc1)c1cccc(Br)c1 | active: 31.6 µM
25 | Cc1cnc(CCNC(=O)c2ccco2)n1C1CCC1 | inactive
26 | COc1ccc(OC)c(NC(=O)Nc2cccc(-c3ccc(N4CCCCC4)nn3)c2)c1 | inactive
27 | CC[S+](=O)([O-])N1C[C@@H](CO)[C@@H]2Oc3c(F)cccc3[C@@H]21 | inconclusive: 63.1 µM [inhibitor, partial curve, poor fit]
28 | CCCN(CCC)C(=O)C1COC2(CCCCC2)N1C(=O)c1ccccc1 (stereo not given) | inactive
29 | CCn1ncc(NC(=O)Cn2ncc3cc(-c4cc(F)ccc4F)ccc32)n1 | inconclusive: 7.94 µM [inhibitor, full curve]
30 | Cc1ccc([S+](=O)([O-])NC2CCN(Cc3cccc(-c4ccc(F)c(F)c4)c3)CC2)cc1 | active: 15.8 µM
31 | Cc1cc2c(cc1CNC1CC(C)(C)Cc3nc(C(C)(C)C)ncc31)OCO2 (stereo not given) | inconclusive: 56.2 µM [inhibitor, partial curve, poor fit]
32 | CCOC(=O)C[C@@H]1C[C@@H](C(C)C)[C@H](CNC(=O)C(C)(C)C)C=C1C | inconclusive: 89.1 µM [inhibitor, partial curve, poor fit]
33 | O=C(O)C1c2ccccc2C(=O)N(Cc2ccccc2)C12CCCC2 (stereo not given) | inactive
34 | CC1CCN(C(=O)C[C@@H]2c3nc(NC(=O)CC(C)(C)C)sc3C[C@@H]3[C@](C)(CO)[C@H](O)CC[C@]32C)CC1 | inconclusive: 50.1 µM [inhibitor, partial curve, poor fit]
35 | CCc1noc(-c2cn(C3CCN(C(=O)c4cccc(NC(C)=O)c4)CC3)nn2)n1 | inactive
36 | O=C(Nc1ccc2c(c1)OCCO2)C1CC(=O)N(c2n[nH]c3ccccc23)C1 (stereo not given) | inactive
37 | O=C(Nc1ccc(Cl)cc1)NC1CCN(Cc2ccc(-c3ccsc3)cc2)C1 (stereo not given) | inconclusive: 50.1 µM [inhibitor, partial curve, poor fit]
38 | COc1ccc(-c2nc(CC3CCN(C(=O)c4n[nH]c(=O)c5ccccc45)C3)no2)cc1 (stereo not given) | inconclusive: 11.2 µM [inhibitor, full curve, poor fit]
39 | Cc1nc2c(c(-c3ccc(O)cc3)n1)CN(Cc1ccsc1)CC2 | inconclusive: 70.8 µM [inhibitor, partial curve, poor fit]
40 | COc1ccc(CCNC(=O)C2CN(C3CCCC3)C(=O)N2)cc1 (stereo not given) | inactive
41 | Cc1ccc(C(=O)NC2CCN(c3ccc4nnc(C)n4n3)CC2)cc1 | inactive
42 | O=C1c2c(nc(COc3ccc4c(c3)OCO4)n2Cc2ccccc2)NCCN1Cc1ccccc1 | active: 25.1 µM
43 | CC(C)(C)CC(=O)Nc1nc2c(s1)C[C@@H]1[C@](C)(CO)[C@H](O)CC[C@@]1(C)[C@@H]2CC(=O)Nc1ccccc1 | inconclusive: 50.1 µM [inhibitor, partial curve, poor fit]
44 | CN1C[C@@H](NC(=O)c2ccc(C(C)(C)C)cc2)C[C@H]1c1nc(-c2ccc3c(c2)OCO3)no1 | inconclusive: 44.7 µM [inhibitor, partial curve, poor fit]

Row | Compound | Potency
45 | COc1ccc(-c2nc3ccncc3[nH]2)cc1 | active: 10 µM and active: 17.8 µM
46 | O=C(O)CCn1ncc2cc(OCC3CCN(C(=O)CC4CC4)CC3)ccc21 | active: 50.1 µM
47 | C[C@H]1[C@@H]2[C@@H](O)C([C@H](C)C(=O)NCc3ccco3)CC[C@@]2(C)CC[C@@H]1NC(=O)c1ccccn1 (stereo not given in full) | inconclusive: 56.2 µM [inhibitor, partial curve, poor fit]
48 | O=C1[C@H]2CN(Cc3cccc(Cl)c3F)C[C@H]2C(=O)N1CCc1ccccc1 | inconclusive: 44.7 µM [inhibitor, partial curve, poor fit]
49 | COCCNC(=O)c1cc(-c2ccccc2OC)c2cccn2n1 | inconclusive: 79.4 µM [inhibitor, partial curve]
50 | COc1cccc(CCC(=O)N2CCCC(Cc3nc(C4CCOCC4)no3)C2)c1 (stereo not given) | inactive
51 | C[C@@]12C(=O)N(CC3CC3)c3ccccc3[C@@H]1[C@@H](C(N)=O)CN2C(=O)c1cc2ccccc2s1 | inconclusive: 31.6 µM [inhibitor, partial curve, poor fit]
52 | O=C(NCc1ccccc1Cl)C1CCN(C(=O)c2ncn3c2COC(c2ccc(F)cc2)C3)CC1 (stereo not given) | inactive
53 | CCOCCNC(=O)CNC(=O)c1ccc(-c2cnc3ccccc3c2)cc1 | inactive
54 | O=C1CCN(C(=O)CN2CCCCCC2)CCCC(c2nc(-c3cccnc3)no2)CCN1 (stereo not given) | inactive
55 | O=C1NCN(Cc2ccc(Cl)cc2)C12CCN(Cc1cccc3ccccc13)CC2 | inconclusive: 44.7 µM [inhibitor, partial curve, poor fit]
56 | Cn1nc(C2CCN(C(=O)[C@H]3CC(=O)NC(=O)N3)CC2)n(-c2ccccc2)c1=O | inconclusive: 89.1 µM [inhibitor, single point]
57 | COCC1CN(Cc2ccccc2)[S+](=O)([O-])c2cccnc2O1 (stereo not given) | inactive
58 | CN(Cc1ccccc1C(F)(F)F)S(=O)(=O)c1cccc(C(F)(F)F)c1 | inconclusive: 50.1 µM [inhibitor, partial curve, poor fit]
59 | Cn1cc(CN2CC[C@@H](c3ccc4c(c3)OCO4)[C@H](O)C2)c2ccccc21 | inconclusive: 79.4 µM [inhibitor, partial curve, poor fit]
60 | O=C(C1CCN(Cc2ccccc2-c2cccnc2)CC1)N1CCCC1 | inactive
61 | CCOc1ccccc1C1NC(=O)N(CC(=O)Nc2ccc(C)c(Cl)c2)C2=C1C(=O)OC2 (stereo not given) | inconclusive: 39.8 µM [inhibitor, partial curve]
62 | CCn1cc(CN2CCC(c3[nH]ncc3-c3ccccc3C)CC2)cn1 | inconclusive: 79.4 µM [inhibitor, single point]
63 | CCc1nc(-c2c3n(c(=O)n(Cc4ccccc4C(F)(F)F)c2=O)CCCC3)no1 | inactive
64 | Cc1ccc(-c2cc(C(=O)NCc3ccc(F)cc3)nn3cnnc23)cc1 | inactive
65 | COc1cccc(C(=O)N2CCC(N3C[C@H](O)C[C@H]3C(=O)NCc3cccc(C)c3)CC2)c1 | inactive
